# Measurements published in the supplement of paper PMC3334620.
# The full ranking holds about 33,000 sequences; the median of “E-score (-0.5 to 0.5)” is about -0.054, and the highest 2% start at about 0.35. Some of the results follow.
# Biological target: T1, Stb5 (UniProt P38699)
# T1 sequence: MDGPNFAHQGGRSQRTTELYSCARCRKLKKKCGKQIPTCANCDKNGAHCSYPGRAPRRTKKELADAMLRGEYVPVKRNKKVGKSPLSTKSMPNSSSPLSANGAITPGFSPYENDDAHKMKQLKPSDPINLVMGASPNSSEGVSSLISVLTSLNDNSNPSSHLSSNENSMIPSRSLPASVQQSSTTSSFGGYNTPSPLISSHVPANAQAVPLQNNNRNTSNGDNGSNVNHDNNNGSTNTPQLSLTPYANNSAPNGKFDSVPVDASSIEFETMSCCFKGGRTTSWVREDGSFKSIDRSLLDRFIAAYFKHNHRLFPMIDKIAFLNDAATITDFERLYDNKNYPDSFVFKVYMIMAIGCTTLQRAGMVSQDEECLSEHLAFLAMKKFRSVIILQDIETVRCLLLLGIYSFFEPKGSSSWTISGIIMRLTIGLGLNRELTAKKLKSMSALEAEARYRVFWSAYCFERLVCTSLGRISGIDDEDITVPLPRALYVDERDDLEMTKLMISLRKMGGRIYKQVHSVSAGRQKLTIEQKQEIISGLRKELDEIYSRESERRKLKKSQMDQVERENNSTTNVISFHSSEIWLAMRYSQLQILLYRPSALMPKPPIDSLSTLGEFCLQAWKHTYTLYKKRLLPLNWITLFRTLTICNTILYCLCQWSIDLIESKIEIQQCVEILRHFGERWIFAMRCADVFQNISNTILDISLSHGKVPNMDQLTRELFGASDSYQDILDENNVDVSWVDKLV
# Experiment: PBM E-score (8-mer binding enrichment) (E-score (-0.5 to 0.5)); higher = stronger / more preferred TF binding; most listed sequences are background and not binding sites
# Conditions: protein concentration: 200 nM; construct: GST-full length
# In short: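 Using PURExpress in vitro transcription/translation, GST-tagged yeast transcription factors were made in full-length or DNA-binding-domain form. These were applied at about 100-200 nM to double-stranded universal all-10-mer Agilent arrays, and bound protein was detected with fluorescent anti-GST. Scans were normalised with masliner before the Universal PBM Analysis Suite assigned E-scores to ungapped eight-base words pooled with their reverse complements.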
row,Sequence,PBM E-score
1,ATGAGAGG,-0.19
2,ATTCACAG,-0.215
3,ACGAAGAA,-0.0852
4,AGCCCGTA,0.181
5,GCCACTCC,-0.00337
6,AACGTTTA,-0.0291
7,GTACGATA,-0.199
8,ACGCCGGA,0.343
9,ACGGAATA,0.0203
10,AAACACCC,0.191
11,CCCGTCGC,0.25
12,ACCGTTCT,0.196
13,CTTAGTTC,0.0266
14,GAATCTAC,-0.191
15,GAGTGCAA,0.0537
16,AAGACGGC,0.188
17,TCAAAGGA,-0.205
18,ATGTTATG,-0.079
19,ACCACAGT,-0.0137
20,CGCAATGC,0.0228
21,CACCACTA,0.0321
22,GTAGATAC,-0.142

row,Sequence,PBM E-score
1,CGCAGTGA,-0.0459
2,CAGGACCC,0.0289
3,ATTGTAAC,-0.119
4,CCACGAAC,0.0176
5,ACATGACG,-0.0923
6,CCAGGACG,0.0545
7,GCAGGTCC,-0.0123
8,GCAGAAAC,-0.065
9,AGATCGCG,0.0683
10,AAGTTACG,-0.00246
11,ACTAAAAG,0.141
12,GACACGCA,-0.0703
13,GCTAGATA,-0.0152
14,CCAGACTC,-0.0079
15,GTATGGTA,-0.168
16,TATAGTCA,-0.292
17,AAGCTGAG,-0.184
18,CTAAGAGA,-0.00422
19,CGAGAACC,-0.109
20,CCCCTAGG,-0.13
21,GAGAGCAC,-0.147
22,GACAGTAC,0.00753

row,Sequence,PBM E-score
1,CACCGACA,0.44
2,AGAGTGAG,-0.0787
3,AACGGGTA,0.102
4,CGGAGGAC,0.156
5,AAAAGTAG,-0.214
6,ACTTGTCA,-0.00839
7,AGCAAGAC,-0.0137
8,AAGTACTG,-0.0952
9,GTGCCCGA,0.172
10,ACACGCCG,0.277
11,AAACACAA,-0.125
12,ACATCCCG,0.148
13,AGACGCGA,-0.027
14,CTTGCGTA,-0.0824
15,ATAGCGTA,0.116
16,CTTGCAAG,0.203
17,TACCCTGA,-0.0521
18,ATATGTTA,-0.0321
19,CTGACGAC,-0.177
20,ACAGCATC,-0.197
21,AATGAGGA,-0.342
22,CACACCTC,-0.0997

row,Sequence,PBM E-score
1,CTGGACAG,-0.123
2,CCAATAGC,-0.113
3,ATTAATTG,-0.0353
4,ACGTTCCC,-0.205
5,CGTCCAAA,0.122
6,AGAATCTA,-0.0808
7,AACTTGTG,-0.138
8,ATGGGAAG,-0.23
9,ATTTTAGG,0.0353
10,AAACGATA,-0.107
11,GGCTTGAC,-0.257
12,ACAATGAA,-0.0923
13,AGCCGGTA,0.213
14,CGCTGTGA,0.13
15,CCCCCCAG,-0.397
16,GATTACAA,0.117
17,GGGACAGA,-0.102
18,ATTGGTCG,-0.0411
19,TCAAGCGA,-0.123
20,CGCGACGC,0.145
